Measured values published in the supplement of paper PMC3334620.
In all, about 33,000 sequences were measured (“E-score (-0.5 to 0.5)”: median about -0.035, highest 2% from about 0.35 on). The list shows a part of the results.

target: T1, Pdr3 (UniProt P33200); assay: PBM E-score (8-mer binding enrichment) (E-score (-0.5 to 0.5)); higher = stronger / more preferred TF binding; most listed sequences are background and not binding sites; details: protein concentration: 200 nM; construct: GST-full length
T1 sequence: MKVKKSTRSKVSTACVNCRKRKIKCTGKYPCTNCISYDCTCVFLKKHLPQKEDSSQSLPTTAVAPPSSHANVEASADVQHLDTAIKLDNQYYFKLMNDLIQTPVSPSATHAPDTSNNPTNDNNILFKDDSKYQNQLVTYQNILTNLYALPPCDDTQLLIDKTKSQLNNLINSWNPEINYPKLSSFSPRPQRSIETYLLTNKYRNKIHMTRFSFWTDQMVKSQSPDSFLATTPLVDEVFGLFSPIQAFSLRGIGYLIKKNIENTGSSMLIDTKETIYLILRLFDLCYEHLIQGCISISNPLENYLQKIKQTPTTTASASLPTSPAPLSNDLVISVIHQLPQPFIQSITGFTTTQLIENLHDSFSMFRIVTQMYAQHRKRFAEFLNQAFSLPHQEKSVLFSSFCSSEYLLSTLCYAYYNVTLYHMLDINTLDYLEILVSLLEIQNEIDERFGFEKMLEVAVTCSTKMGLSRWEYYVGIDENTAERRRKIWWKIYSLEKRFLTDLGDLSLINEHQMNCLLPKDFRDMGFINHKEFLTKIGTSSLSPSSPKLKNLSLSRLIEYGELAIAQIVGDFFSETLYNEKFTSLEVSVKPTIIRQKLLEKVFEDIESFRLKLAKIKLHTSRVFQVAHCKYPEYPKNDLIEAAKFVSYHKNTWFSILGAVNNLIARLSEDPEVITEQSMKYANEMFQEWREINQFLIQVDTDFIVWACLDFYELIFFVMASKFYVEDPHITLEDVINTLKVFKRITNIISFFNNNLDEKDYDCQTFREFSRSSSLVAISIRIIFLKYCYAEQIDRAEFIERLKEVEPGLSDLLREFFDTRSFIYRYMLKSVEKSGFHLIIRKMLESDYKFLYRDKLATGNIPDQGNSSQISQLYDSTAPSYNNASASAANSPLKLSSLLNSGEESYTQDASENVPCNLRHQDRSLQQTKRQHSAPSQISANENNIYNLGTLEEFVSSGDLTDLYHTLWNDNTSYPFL
In short: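 Yeast transcription factors, full-length or as DNA-binding domains, were expressed with a GST tag using PURExpress in vitro transcription/translation. At about 100-200 nM they were applied to universal all-10-mer Agilent arrays, double-stranded by primer extension on fresh or once-stripped slides. Fluorescent anti-GST detected bound protein, and masliner normalised the scans. E-scores for ungapped eight-base words, pooled with reverse complements, came from the Universal PBM Analysis Suite.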

Sequence | PBM E-score
ATTATATG | 0.0486
CTCAATGA | -0.0432
CCCCGTAG | -0.0696
CGTGCGAC | -0.0358
TAGGACCA | -0.13
CATCCAAA | -0.191
GTCCGGGA | 0.353
ATAATTCC | 0.206
ACCTACCC | 0.134
ATCTCACA | -0.147
CCAATATC | 0.154
CCTCACGA | -0.169
TGCGAAAA | 0.121
TAACATTA | -0.092
AGCAAAGC | -0.116
AGGTAATA | 0.125
GTGGCCCA | -0.0486
ATCCCTCG | 0.145
AGGCCACA | -0.216
CAATGATA | -0.0335
ATTCTTCG | -0.013
GAGGCCAC | -0.0817
CGTGATAA | 0.0764
AGTTCACC | 0.0988
GTTTGGTA | -0.0186

Sequence | PBM E-score
CCTCACAG | 0.0304
AAAGCCTT | -0.26
CTGCATAA | -0.03
CAAGACCC | -0.0844
AAGACTCG | -0.104
CAGCGCAG | -0.00798
CACGCTGA | -0.206
TCCCCAAA | -0.0478
CGATTGTC | 0.0469
CAAAAGCC | -0.0451
CTGATCGA | -0.302
AATACAGC | 0.0881
ACTTCATC | -0.055
GAAGGTAC | -0.196
AGGTCGTG | -0.228
CCGCGGCG | 0.477
CCAGTGAA | -0.166
GACGCCTA | -0.228
CAGTGCAC | -0.0999
ACCTGACC | -0.19
AAAAACAC | -0.131
GACCCCAC | 0.0197
ATACTTTG | 0.0195
GGTCGTGA | -0.217
GAGAACCC | -0.0375

Sequence | PBM E-score
TCAATGGA | -0.044
CTCTTATA | 0.14
AGATGCAG | -0.231
AATTATCT | 0.12
CTGGTTTC | 0.0941
ACCGAACT | 0.086
AGCACAAC | 0.151
AAGGCTGA | -0.164
AAATTGTG | -0.258
AAGAACAC | 0.0611
CATAGGTA | -0.128
ATTTGAGC | 0.00602
ACAGCCCA | -0.183
CGATGCAA | -0.0399
CCGACCGG | 0.339
ATGACATA | 0.108
ATTCGATG | -0.0673
ATCGCTCA | -0.0441
GTAGCGTA | -0.0161
AGTGTGCA | -0.038
CAAGACGA | -0.12
ACGTTGAT | -0.0248
CTGGCGGC | 0.188
CGGGAAAA | 0.221
CCTATAAA | -0.19

Sequence | PBM E-score
GCCGGCGA | 0.36
AACATTTA | 0.116
AGCCATGA | -0.0703
GGGAGCCC | -0.0936
CTGTTGTA | -0.0713
AAAGAACA | -0.143
TAACTTCA | -0.118
CAGATTAG | -0.229
GACAACAA | -0.115
AGAGATAT | -0.106
GAGTGCAC | -0.0758
AATTTTCC | 0.339
AGTGAAGA | -0.211
AGCGGAAG | 0.341
ACGCAGCC | 0.00505
AAATTAGT | 0.0923
AAAAGCCG | 0.142
CCGCGCAC | 0.174
AATCAAAA | 0.0383
CCCGCCGG | 0.373
CAATTAAC | 0.12
ACGTAGTC | -0.204
GAGGCAGA | -0.166
ATTTTGCA | -0.0654
GACCGGCC | 0.24

Sequence | PBM E-score
AGCCGTAT | 0.0899
CCAGTGCC | -0.1
AACGTACG | -0.162
ACTGCCTG | -0.0681
ACGTGAAT | -0.14
CGTCTACC | -0.0665
GCGGCTAC | 0.17
AAGTAGAT | 0.106
ACGATGCG | -0.19
CGCTCACG | 0.154
CCAGTACA | -0.16
AATTGGCA | -0.105
AGGGGTTC | -0.0384
ATCTTGAC | -0.184
GGTCCAGA | -0.0782
CGTGAATC | 0.0238
AGGTGGAC | -0.134
GTTCCGCA | 0.462
GAACGGTA | 0.0166
AATCTCAG | -0.0785
GCTTCACA | -0.0787
ACTTCTTG | -0.0216
ATTATGAA | 0.01
AGTCGCAT | -0.203
GCTCAAAC | 0.0815

Sequence | PBM E-score
GCGAGCAC | 0.0146
GATGTCGC | 0.0977
GATTGGGA | -0.0927
CTCATACC | 0.07
CGCTAGTA | 0.153
CTGGTGGC | -0.0314
CCGCCCCG | 0.435
ATAAAATA | 0.0204
AAACGTCC | -0.131
GTGTTCGA | 0.0381
CGTTTTCA | 0.149
GCCAAATA | -0.0741
GTGGTGCA | -0.0441
GCCGATCC | 0.231
CCATCTGC | 0.0199
AACCAGAC | -0.142
GGTCGATA | -0.0029
CGACTCCA | -0.0629
GAGATGAC | -0.116
CCCCATCG | 0.209
CGGACATA | 0.32
ATACGGCC | 0.0641
AAACGCAA | 0.0821
GTGCTCGA | 0.00353
GTGTGGTA | -0.21

Sequence | PBM E-score
CGCAATAC | 0.0777
GAGCATCC | 0.206
AGTGCAAC | -0.107
CTCGACAC | -0.0404
CTAGGGAA | -0.173
CTATTGGA | 0.0372
CACATGTA | -0.0565
CCCAGTTA | -0.101
ACCGCCCG | 0.227
CTGTATTA | -0.0708
AGTCTCAT | -0.152
CGTTGGTA | 0.0736
GACTTTGA | -0.204
CCCAGTGA | -0.289
ATAATATC | 0.0559
AAGTCGGG | 0.0808
TATTAGCA | -0.0886
CCGTAGGC | 0.0972
GACAGCCC | 0.0115
ACATGCAC | -0.17
GGATAGTA | 0.229
CTGATTAC | 0.0274
